Measured values published in PubChem BioAssay AID1645882 (National Center for Advancing Translational Sciences (NCATS), 2021).
The whole screen tested about 16,000 compounds, of which about 120 (0.75%) were called active. Not shown: some 4% with an inconclusive outcome. Calls come from the whole dose curve; as a rule, active = well fitted inhibition curve with a large enough effect; inconclusive = small, poorly fitted or top-dose-only effect; inactive = no such curve, though single readings can be large or run the other way. Some of the results follow.

molecular target: Rap guanine nucleotide exchange factor 3 (Homo sapiens) (UniProt O95398); assay: Validation qHTS for antagonist of cAMP-regulated guanine nucleotide exchange factor 3 (EPAC1); settings: EPAC1 Rap1B-BODIPY-GDP exchange, fluorescence; series mostly up to 150 µM; activity change, negative = inhibition: at the top concentration; note: nearly all actives have a fitted effect of over 75% in size
In short: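 EPAC1 (100 nM) mixed with 250 nM RAP1B-BODIPY-GDP and 50 uM GDP; compounds in concentration series, 5 min at room temperature. Fluorescence (ex 480/em 540 nm) read every 5 min for 30 min; normalized to ATA control and DMSO.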

Chain of UniProt O95398 (O95398 whole entry, looked up): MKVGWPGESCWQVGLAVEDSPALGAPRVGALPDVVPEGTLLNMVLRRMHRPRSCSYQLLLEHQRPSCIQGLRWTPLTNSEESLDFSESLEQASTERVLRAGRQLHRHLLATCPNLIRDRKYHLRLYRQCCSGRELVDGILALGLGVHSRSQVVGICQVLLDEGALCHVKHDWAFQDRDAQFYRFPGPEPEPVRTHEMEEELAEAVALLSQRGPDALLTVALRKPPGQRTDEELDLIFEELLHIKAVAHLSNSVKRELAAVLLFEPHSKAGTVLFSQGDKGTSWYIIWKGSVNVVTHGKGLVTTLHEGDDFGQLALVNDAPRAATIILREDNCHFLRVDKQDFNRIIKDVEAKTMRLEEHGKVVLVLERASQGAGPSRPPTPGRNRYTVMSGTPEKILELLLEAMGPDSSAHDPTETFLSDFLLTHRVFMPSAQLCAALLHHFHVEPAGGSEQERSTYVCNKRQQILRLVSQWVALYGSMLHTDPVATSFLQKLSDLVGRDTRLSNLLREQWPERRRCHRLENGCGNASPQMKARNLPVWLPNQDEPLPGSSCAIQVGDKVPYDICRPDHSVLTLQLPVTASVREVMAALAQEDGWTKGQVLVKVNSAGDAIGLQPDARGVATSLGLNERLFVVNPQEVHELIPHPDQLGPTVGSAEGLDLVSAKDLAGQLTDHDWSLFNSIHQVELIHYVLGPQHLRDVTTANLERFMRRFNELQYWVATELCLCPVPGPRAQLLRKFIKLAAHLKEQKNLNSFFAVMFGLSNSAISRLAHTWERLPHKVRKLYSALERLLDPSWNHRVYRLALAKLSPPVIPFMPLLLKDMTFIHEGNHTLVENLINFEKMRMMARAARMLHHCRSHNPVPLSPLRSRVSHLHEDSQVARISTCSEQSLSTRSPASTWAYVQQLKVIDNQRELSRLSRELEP

Activity change, negative = inhibition, inactive:
Cn1c(-c2nc(-c3ccccc3)cs2)nc2ccccc21 15.4%
Nc1nc(N)c(-c2ccccc2)s1 10.7%
O=c1c(CN2CCOc3ccc(CN4CCC(Oc5cccnc5)CC4)cc3C2)coc2ccccc12 -16.5%
COc1ccccc1C1CN(CC(=O)N[C@H]2CCCCNC2=O)Cc2ccccc2O1 (stereo not given in full) 3.92%
C(=C\c1cccs1)/c1ccccn1 -21.3%
CC(C)c1nc2cccnc2n1C1CCN(C(=O)Cn2cccn2)CC1 30.7%
COCCn1c(=O)c(-c2ccc(Cl)cc2)nc2cnc(Oc3cccc(Cl)c3)nc21 16%
CCNc1ncc2nc(-c3ccc(OC)cc3)c(=O)n(CCOC)c2n1 19.4%
Cn1c(=O)c(-c2ccc(Cl)cc2)nc2cnc(Nc3ccccc3)nc21 12.7%
O=c1c(-c2ccccc2)nc2cnc(Oc3cccc(Cl)c3)nc2n1C1CC1 -8.47%
O=c1ccn([C@H]2C[C@H](O)[C@@H](CO)O2)c(=O)[nH]1 13%
CN(C)CC(C)(O)c1ccc2c(c1)CN(Cc1cnn(-c3ccccc3)c1)CCO2 (stereo not given) 23.3%
Cc1nc2cnc(N3CCOCC3)nc2n(CCc2ccccc2)c1=O 13.7%
N[C@@]1(C(=O)O)CN[C@@H](C(=O)O)C1 3.77%
Cc1c(NC(C)C)c(=O)n(-c2ccccc2)n1C 9.97%
COc1ccccc1CCNc1ncnc2sc(C(=O)N3CCCC3)c(C)c12 1.45%
c1cncc(OC2CCN(Cc3ccc4c(c3)CN(Cc3ccc5c(c3)OCCO5)CCO4)CC2)c1 6.92%
COc1cc(N)c(Cl)cc1C(=O)CCC1CCN(CCNS(C)(=O)=O)CC1
CCCNC(C)C(=O)Nc1c(C)csc1C(=O)OC (stereo not given) -0.822% [at 75.8 µM]
N#Cc1cccc(NC(=O)N2CCC3(CC2)CCN(C(=O)c2cnccn2)CC3)c1 12.3%
Clc1ccccc1-c1cc(NCc2cccnc2)ncn1 7.9%
COc1cccc(N(C)C(=S)Oc2ccc3c(c2)CCCC3)n1 5.96%
CCCCCCCCCC(=O)OCC(CO)OC(=O)CCCCCCCCC (stereo not given) 8.19% [at 15.3 µM]
CCN(Cc1ccncc1)Cc1ccc2c(c1)CN(C(=O)c1cccc(-n3nc(C)cc3C)c1)CCO2 10.4%
Nc1ccncc1N 11%
Oc1ccc([C@@H]2CNCCc3c2cc(O)c(O)c3Cl)cc1 10.5%
COC(=O)[C@H]1[C@H]2C[C@@H]3c4[nH]c5ccccc5c4CCN3C[C@H]2C[C@@H](OC(=O)c2cc(OC)c(OC)c(OC)c2)[C@@H]1OC
O=C(O)c1ccc(NC(=O)[C@H](Cc2ccc(O)cc2)NC(=O)c2ccccc2)cc1 8.96%
COC(=O)N1CCC2(CC1)CN(c1ccncc1)C2 3.12%
CCc1c(C)nc2c(OC)cccc2c1Cl 12.3%
CC(=O)C1CCC2C3CC=C4CC(O)CC[C@@]4(C)C3CC[C@]12C (stereo not given in full) 15.1%
O=C(c1n[nH]c2c1CCCC2)N1CCOc2ccc(C(O)C(c3ccccc3)c3ccccc3)cc2C1 (stereo not given) -8.79%
CN(C)Cc1ccccc1-c1nccc(N(C)Cc2ccco2)n1 11.7%
COc1ccc(C(=O)N2CCC3(CC2)CN(c2ccc(-c4ccccc4)cc2)C3)cc1 19.1%
COC(=O)[C@@H](N)Cc1ccc(O)c(O)c1
COc1ccc2c(c1)c(CC(=O)O)c(C)n2Cc1ccc(Cl)cc1 -6.29% [at 75.8 µM]
C[C@]12CCC(=O)C=C1C=C[C@@H]1[C@@H]2CC[C@@]2(C)[C@H]1CC[C@@]21CCC(=O)O1 8.67%
O=S1(=O)CCO[C@H]2CCCC[C@@H]2N1Cc1cccc(F)c1 12.6%
C[C@H](/C=C/[C@H](C)C(C)(C)O)[C@H]1CC[C@H]2/C(=C/C=C3C[C@@H](O)C[C@H](O)C3)CCC[C@]12C 29.7%
COCC(=O)N1CCC2(CCN(Cc3ccccc3OC)CC2)CC1 9.62%
CC1(C)[C@@H](O)CC[C@]2(C)[C@H]3C(=O)C=C4[C@@H]5C[C@@](C)(C(=O)O)CC[C@]5(C)CC[C@@]4(C)[C@]3(C)CC[C@@H]12
Nc1ncnc2c1[nH]c(=O)n2C1CC(O)C(CO)O1 (stereo not given) 11.4%
CN1CCN(c2nc(-c3ccc(N(C)C)cc3)nc3ccccc23)CC1 16.4%
COC(=O)CCc1ccc(OCC(O)CNC(C)C)cc1 (stereo not given) 27.6%
CCCOC(=O)N[C@@H]1C(=O)N2C(C(=O)OCCC)=C(C)CS[C@H]12 -0.626%
N[C@H](C(=O)O)[C@H]1C[C@H]1C(=O)O 18.5%
COCCOC(=O)C1=C(C)NC(C)=C(C(=O)OC(C)C)C1c1cccc([N+](=O)[O-])c1 (stereo not given)
NCCS
CN1C(C(=O)Nc2ccccn2)=C(O)c2ccccc2S1(=O)=O
O=C(NCC1Cc2cc(F)cc(-c3cnccn3)c2O1)c1cccc(-c2ccccc2F)c1 (stereo not given) -16.9%
